# Assay results from PubChem BioAssay AID485294 (National Center for Advancing Translational Sciences (NCATS), 2010).
# The campaign covered roughly 370,000 compounds. About 150 (0.041%) were called active. The inconclusive results got no clear call from the source; some entries with a clear call stand among them for comparison. Calls follow the shape of the dose curve; as a rule, active = well fitted inhibition curve with a large enough effect; inconclusive = small, poorly fitted or top-dose-only effect; inactive = flat fitted curve, though single readings scatter. No potency is given beside an inconclusive call; the fits are too rough.
# Target: Beta-lactamase (Escherichia coli (strain K12)) (UniProt P00811)
# UniProt P00811, sequence (P00811 whole entry, looked up): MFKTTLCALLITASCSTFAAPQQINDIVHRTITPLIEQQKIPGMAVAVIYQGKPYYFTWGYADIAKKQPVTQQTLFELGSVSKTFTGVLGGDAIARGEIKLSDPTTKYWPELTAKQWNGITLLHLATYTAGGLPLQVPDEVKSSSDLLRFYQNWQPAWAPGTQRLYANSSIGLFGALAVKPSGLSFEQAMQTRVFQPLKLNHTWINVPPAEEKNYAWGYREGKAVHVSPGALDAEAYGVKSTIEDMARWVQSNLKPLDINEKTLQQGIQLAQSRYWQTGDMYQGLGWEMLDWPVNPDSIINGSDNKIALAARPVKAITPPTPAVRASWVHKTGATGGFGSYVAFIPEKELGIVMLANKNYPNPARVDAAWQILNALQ
# Test: qHTS Inhibitors of AmpC Beta-Lactamase (assay with detergent); also: nearly all actives have a fitted effect of over 25% in size
# Conditions: AmpC hydrolysis of nitrocefin, absorbance 480 nm, 0.01% Triton; series mostly up to 114 µM
# In short: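 AmpC (5.3 nM in the dispensed reagent) in 20 mM phosphate pH 7.0 with 0.01% (detergent screen) or 0.0001% Triton X-100 was preincubated with compounds for 15 min at room temperature. Nitrocefin was then added from an 800 uM solution, and hydrolysis was followed at 480 nm.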
# Potency is read from the fitted curve at half-maximal effect; tags tell the direction and shape of the fitted curve.
row,SMILES,Potency
1,CCc1nnc(NC(=O)c2ncc(Cl)c(Cl)c2Cl)s1,inactive
2,O=C1C2C3C=CC(C3)C2C(=O)N1c1ccc(-c2nc3ccccc3o2)cc1 (configuration not stated),"inconclusive [inhibitor, full curve, poor fit]"
3,O=C(Nc1ccc(-c2nc3cc(NC(=O)c4cccs4)ccc3o2)cc1)c1cccs1,inactive
4,COc1cc(C)c(CN2CCC(Cc3ccccc3)CC2)cc1C,"inconclusive [inhibitor, full curve, poor fit]"
5,FC(F)(F)c1ccc(Cl)c(-n2c(-c3ccco3)n[nH]c2=S)c1,inactive
6,COc1ccc(OC)c(NC(=S)NN2CCN(C)CC2)c1,"inconclusive [inhibitor, full curve, poor fit]"
7,CC1(C)NC(=O)N(CCCCSc2ccc(Cl)cc2)C1=O,"inconclusive [inhibitor, full curve, poor fit]"
8,Cc1ccc(-c2nn(C)c(=O)c3ccccc23)cc1CO,"inconclusive [inhibitor, single point]"
9,O=C(NCc1ccc(F)cc1)Nc1ccc(Cl)cc1,inactive
10,Cc1cc(F)ccc1S(=O)(=O)Nc1ccccc1C(=O)N1CCCC1,"inconclusive [inhibitor, single point]"
11,Cc1ccc(-c2cc(C(F)(F)F)nc(SCC(=O)c3cccc([N+](=O)[O-])c3)n2)cc1,inactive
12,CN(C(=O)COC(=O)CNC(=O)c1ccc(C(C)(C)C)cc1)c1c(N)n(Cc2ccccc2)c(=O)[nH]c1=O,"inconclusive [inhibitor, partial curve]"
13,Cc1nc2ccccc2c(=O)n1/N=C/c1ccc2ccccc2c1O,inactive
14,CCOc1ccccc1CNC(=O)CN(c1ccc(C)cc1)S(=O)(=O)N(C)C,inactive
15,O=C(NCc1ccc(Cl)cc1)C(=O)c1c[nH]c2ccccc12,"inconclusive [inhibitor, full curve, poor fit]"
16,O=C(NC1CCCCC1)N1CCN(c2ccccc2Cl)CC1,"inconclusive [inhibitor, partial curve, poor fit]"
17,CCOC(=O)C1(CCCc2ccccc2)CCN(C(=O)C2CCCN(C(N)=O)C2)CC1 (configuration not stated),inactive
18,CC(C)(C)NC(=O)C(c1ccc(F)cc1)N(Cc1ccco1)C(=O)CCC(=O)Nc1ccccn1 (configuration not stated),"inconclusive [inhibitor, single point]"
19,CCN1c2ccccc2N(C)C1(C)c1ccccc1 (configuration not stated),"inconclusive [inhibitor, full curve]"
20,CCOC(=O)N1CCC(N2C(=O)c3ccccc3C2Nc2ccc3c(C)cc(=O)oc3c2)CC1 (configuration not stated),"inconclusive [inhibitor, partial curve, poor fit]"
21,Cc1cccc2sc(NC(=O)CN3C(=O)c4ccccc4C3=O)nc12,"inconclusive [inhibitor, partial curve, poor fit]"
22,O=C(CSc1nnc(Nc2ccccc2)s1)NCc1ccco1,"inconclusive [inhibitor, full curve, poor fit]"
23,CCCNC(=O)CS(=O)(=O)Cc1nc(-c2cccc(OC)c2)oc1C,"inconclusive [inhibitor, full curve]"

row,SMILES,Potency
1,CCN(CC)c1ccc(/C=N/NC(=O)c2c(-c3ccccc3)noc2C)cc1,"inconclusive [inhibitor, partial curve, poor fit]"
2,Cn1cc(Cl)c(C(=O)NNC(=S)NC2CCCCC2)n1,"inconclusive [inhibitor, single point]"
3,CCC(OCC(O)CN1CCN(CCN2C(=O)c3cccc4cccc(c34)C2=O)CC1)c1ccccc1 (configuration not stated),"inconclusive [inhibitor, full curve]"
4,Cc1ccc(COC(=O)CCN=C2NS(=O)(=O)c3ccccc32)cc1,"inconclusive [inhibitor, full curve, poor fit]"
5,COCCOC(=O)c1c(C)nc(SCC(=O)Nc2ccc(C)cc2)c(C#N)c1-c1ccco1,"inconclusive [inhibitor, full curve, poor fit]"
6,Nc1cc(-c2cccc(F)c2)nn1S(=O)(=O)c1cccc2nsnc12,"inconclusive [inhibitor, full curve, poor fit]"
7,COc1ccccc1CCc1nnc(CCC(=O)NCC2CCCO2)o1 (configuration not stated),inactive
8,Cc1cccn2c(=O)nc(SCC(=O)N3CC(C)OC(C)C3)nc12 (configuration not stated),"inconclusive [inhibitor, full curve, poor fit]"
9,COc1ccc2nc3sc(C(=O)N4CCN(c5ccccc5)CC4)cc3cc2c1,inactive
10,CSc1ncccc1C(=O)N1CCCC(Nc2ccc(C)c(C)c2)C1 (configuration not stated),"inconclusive [inhibitor, full curve, poor fit]"
11,O=C(Cc1cccs1)Nc1ccc(F)c(S(=O)(=O)N2CCOCC2)c1,inactive
12,COc1cc(C(=O)NCc2ccc3c(c2)OCO3)ccc1OCc1c(C)noc1C,"inconclusive [inhibitor, partial curve]"
13,COc1ccc(CN(C(=O)CSc2nnc(-c3c[nH]c4ccccc34)o2)c2ccc(F)cc2)cc1OC,inactive
14,CCC(=O)Nn1c(C)nnc1C,"inconclusive [inhibitor, partial curve, poor fit]"
15,CCc1cccc(CC)c1N(COC)C(=O)Cn1nnc2ccccc21,"inconclusive [inhibitor, full curve, poor fit]"
16,COc1ccc(N2C(=O)[C@@H]3[C@H](C2=O)[C@H]2c4ccccc4C=CN2[C@@H]3C(=O)Nc2ccccc2)cc1,"inconclusive [inhibitor, full curve, poor fit]"
17,CCS(=O)(=O)c1nc2ccccc2n1CC(=O)Nc1ccccc1C(=O)OC,inactive
18,COc1cc(C2/C(=C(\O)c3ccc4c(c3)CC(C)O4)C(=O)C(=O)N2Cc2ccco2)ccc1O (configuration not stated),"inconclusive [inhibitor, full curve, poor fit]"
19,CC1(C)CC(=O)C(C=NCCO)=C(O)C1,"inconclusive [inhibitor, partial curve, poor fit]"
20,CCc1ccccc1NC(=O)C1CC(c2ccc(F)cc2)=NO1 (configuration not stated),"inconclusive [inhibitor, partial curve, poor fit]"
21,O=C(O)C1CCCCC1C(=O)Nc1ccc(F)c(F)c1 (configuration not stated),"inconclusive [inhibitor, single point]"
22,Cc1ccnc(NC(=O)c2cccc(S(=O)(=O)N3CCCC3)c2)c1,inactive
23,CCOC(=O)C1CCN(C(c2ccc(OC)c(OC)c2)c2sc3nc(C)nn3c2O)CC1 (configuration not stated),"inconclusive [inhibitor, full curve, poor fit]"

row,SMILES,Potency
1,NS(=O)(=O)c1ccc(NN=C2CCCCC2)c([N+](=O)[O-])c1,"inconclusive [inhibitor, full curve, poor fit]"
2,COc1ccc(-c2cnnc(N/N=C/c3ccc(O)c(O)c3)n2)cc1,"inconclusive [inhibitor, full curve, poor fit]"
3,CO/N=C/NC(=O)C1=NOC(CNc2ncc(C(F)(F)F)cc2Cl)C1 (configuration not stated),inactive
4,CC(C)(C)NC(=O)CSc1nc(O)cc(=O)n1-c1ccccc1F,"inconclusive [inhibitor, partial curve]"
5,COc1ccc(-c2nc3ccccn3c2C=O)cc1,"inconclusive [inhibitor, partial curve, poor fit]"
6,C#CCSC1=C(C#N)C(c2cccs2)C(C(=O)OCC)=C(C)N1 (configuration not stated),"inconclusive [inhibitor, full curve]"
7,COc1ccc(S(=O)(=O)NCc2ccncc2)cc1NC(=O)c1ccccc1C,"inconclusive [inhibitor, full curve]"
8,Cc1c(N=C2SCC(=O)N2/N=C/c2ccccc2)c(=O)n(-c2ccccc2)n1C,"inconclusive [inhibitor, full curve, poor fit]"
9,CC1(C)CC(=O)C(C=NCCN2CCN(C(=O)CC3CCCC3)CC2)=C(O)C1,inactive
10,CCOC(=O)c1cnc2c(OC)cccc2c1NCc1cccnc1,inactive
11,CCc1ccc(NC(=S)NC2CC3CCC(C2)N3Cc2ccco2)cc1 (configuration not stated),inactive
12,O=C(Nc1cccc(Cl)c1)C1CCCN(S(=O)(=O)c2cnc[nH]2)C1 (configuration not stated),"inconclusive [inhibitor, full curve, poor fit]"
13,O=C(CN1CCN(C(=O)C2CC2)CC1)Nc1ccc(Cl)cc1F,"inconclusive [inhibitor, full curve, poor fit]"
14,NC(=S)N=Nc1c(O)n(Cc2ccc(F)cc2)c2ccccc12,inactive
15,Cc1nnc(SCSc2nnc(C)s2)s1,"inconclusive [inhibitor, partial curve, poor fit]"
16,Cc1c(C)c2ccc(OC(C)C(=O)N[C@@H](Cc3c[nH]c4ccccc34)C(=O)O)c(C)c2oc1=O (some centres not stated),"inconclusive [inhibitor, full curve, poor fit]"
17,CCc1cc(/C(Cc2cscn2)=N\O)c(O)cc1O,"inconclusive [inhibitor, single point]"
18,Cc1nc(-c2ccc(Cl)cc2)sc1C(=O)O,"inconclusive [inhibitor, single point]"
19,COc1cccc(NC(=O)C(=O)NCC(c2ccc3c(c2)OCO3)N2CCOCC2)c1 (configuration not stated),inactive
20,Cc1cc(Nc2ccc(F)cc2C)n2ncnc2n1,"inconclusive [inhibitor, full curve, poor fit]"
21,Cc1cc(C)c(C)c(S(=O)(=O)N2CCN(C(=O)C3CCC3)CC2)c1C,"inconclusive [inhibitor, full curve, poor fit]"
